Test results as given in paper PMC4336329 (PLoS ONE, 2015).
Among all 310,000 compounds or so, about 14,000 (4.5%) showed an effect of 50% or more. Effects have a minus sign here. Some of the results follow.

biological target: human ether-à-go-go-related gene (hERG) potassium channel (human, UniProt Q12809); assay: primary screen, population patch clamp on CHO cells stably expressing hERG
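Note: peak tail current of the secondary pulse compared with the same well before compound.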

Chain of human ether-à-go-go-related gene (hERG) potassium channel (Q12809 whole entry, looked up): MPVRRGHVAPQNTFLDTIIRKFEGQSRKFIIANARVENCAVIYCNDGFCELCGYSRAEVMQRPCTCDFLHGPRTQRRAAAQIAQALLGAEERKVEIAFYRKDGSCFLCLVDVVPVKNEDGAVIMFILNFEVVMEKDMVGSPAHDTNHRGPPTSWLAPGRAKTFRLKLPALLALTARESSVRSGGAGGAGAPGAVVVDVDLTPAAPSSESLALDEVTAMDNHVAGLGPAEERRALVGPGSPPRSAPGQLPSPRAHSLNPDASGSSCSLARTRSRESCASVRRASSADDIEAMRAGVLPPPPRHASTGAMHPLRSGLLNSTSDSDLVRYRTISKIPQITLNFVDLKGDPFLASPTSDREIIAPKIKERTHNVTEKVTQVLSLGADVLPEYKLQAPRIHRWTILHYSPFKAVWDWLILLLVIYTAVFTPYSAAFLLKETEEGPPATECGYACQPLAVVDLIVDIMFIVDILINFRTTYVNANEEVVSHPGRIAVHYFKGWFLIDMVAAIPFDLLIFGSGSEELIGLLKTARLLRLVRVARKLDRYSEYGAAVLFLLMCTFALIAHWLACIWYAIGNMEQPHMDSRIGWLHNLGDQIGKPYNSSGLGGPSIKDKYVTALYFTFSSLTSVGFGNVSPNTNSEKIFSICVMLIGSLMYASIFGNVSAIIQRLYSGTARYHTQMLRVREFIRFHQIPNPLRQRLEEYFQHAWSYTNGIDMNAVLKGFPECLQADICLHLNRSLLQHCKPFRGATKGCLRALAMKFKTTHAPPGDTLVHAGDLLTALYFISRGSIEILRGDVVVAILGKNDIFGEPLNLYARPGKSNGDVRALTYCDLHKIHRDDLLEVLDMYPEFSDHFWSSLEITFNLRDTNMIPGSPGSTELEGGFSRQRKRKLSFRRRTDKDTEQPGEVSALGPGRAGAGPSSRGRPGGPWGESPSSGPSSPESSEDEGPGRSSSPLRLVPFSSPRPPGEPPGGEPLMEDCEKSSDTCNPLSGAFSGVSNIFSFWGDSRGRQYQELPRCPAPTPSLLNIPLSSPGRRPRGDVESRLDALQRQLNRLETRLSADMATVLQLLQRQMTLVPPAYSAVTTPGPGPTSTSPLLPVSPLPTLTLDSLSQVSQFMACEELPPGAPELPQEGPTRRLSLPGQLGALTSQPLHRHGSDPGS

Structure (SMILES)	hERG current change (%, negative = inhibition) at 10uM [%]
CCOC(=O)C1CCN(C(=O)c2cccc(S(=O)(=O)N3CCc4ccccc43)c2)CC1	-56.4
CCOc1ccc2nc(N(CCCN(C)C)C(=O)c3ccc4c(c3)CCCC4)sc2c1.Cl	-14.1
COc1ccc(Cl)cc1CSc1ncn[nH]1	-3.67
O=C(CCNC(=O)c1ccco1)Nc1ccccc1	15
CC(=O)Nc1cccc(OCC(O)Cn2c(C)nc3ccccc32)c1 (stereo not drawn)	10.3
CCC(C(=O)OCC(=O)Nc1ccc(OC)cc1OC)c1ccccc1 (stereo not drawn)	-29.8
CC(C)NC(=O)c1sc2c(c1C(=O)Nc1cccnc1)CCCC2	-69.7
CCc1nc2cc(Cl)c(Cl)cc2[nH]1	2.59
O=C(NCCC1=CCCCC1)c1ccc(F)cc1	-9.04
COc1ccc2c(c1)c(C(=O)N/N=C/c1cccc(O)c1)c(C)n2C	-17.7
C=CCOc1c(Br)cc(/C=N\n2nnnc2N)cc1OC	4.66
COc1ccc(C2(C)NC(=O)N(CC(=O)Nc3ccc(C)cc3Br)C2=O)cc1OC (stereo not drawn)	1.02
O=C(O)CCC(=O)c1ccc2ccc3cccc4ccc1c2c34	13.7
CCN(Cc1ccccc1)C(=O)CS(=O)(=O)c1ccccc1	1.42
O=C(CSc1ncnc2nc[nH]c12)c1ccccc1	14.6
NC(=O)CSc1nc(-c2ccccc2)nc2ccccc12	-0.916
Cc1ccccc1C(=O)NC(=S)Nc1ccc2[nH]c(=O)[nH]c2c1	23.1
CCCCn1c(N)c(N(CC(C)C)C(=O)Cc2ccc3c(c2)OCCO3)c(=O)[nH]c1=O	4.66
CC(C)OCCCNc1ncnc2c1nc1n2CCCC1	-72.6
Cc1cc2c3c([nH]c2cc1S(=O)(=O)NCc1ccc(CN2CCCCCC2)o1)CCCC3=O	-31.9
Cc1ccc(C)c2[nH]c(=O)c(CCNS(=O)(=O)c3ccccc3)cc12	-8.54
N#Cc1cnc(N)c(Br)c1	12.5

Structure (SMILES)	hERG current change (%, negative = inhibition) at 10uM [%]
Cc1nn(C)c(NC(=O)c2ccccc2Cl)c1Br	14.8
O=C(NCC1CCCO1)c1cc2c(s1)CCC2 (stereo not drawn)	34.1
CCc1ccc(N2C(=O)NC(=O)/C(=C\C=C\c3ccco3)C2=O)cc1	5.2
O=C(CSc1nc2ccccc2c(=O)n1Cc1ccco1)Nc1cccc(O)c1	3.9
COC(=O)C(C)n1cnc2c(nnn2Cc2ccc(Cl)cc2)c1=O (stereo not drawn)	-16.4
Cc1nc2ccc(S(=O)(=O)NC(C(=O)N3CCCC3)C(C)C)cc2s1 (stereo not drawn)	7.12
O=[N+]([O-])c1cc(C=Nc2ccc3ccccc3c2)ccc1Br	7.6
Cc1cc(C)n(C(=O)c2ccc([N+](=O)[O-])c(Cl)c2)n1	19.7
CCCCN(C(=O)C1CC(=O)N(Cc2ccc(C)cc2)C1)c1c(N)n(CCCC)c(=O)[nH]c1=O (stereo not drawn)	20.4
O=C(OCn1nnc2ccccc2c1=O)c1ccc2c(=O)n3c(nc2c1)CCC3	-7.06
Cc1ccc(S(=O)(=O)N(C)c2ccc(C(=O)N3CCc4ccccc4C3)cc2)cc1	-40.6
CCn1nccc1C(=O)Nc1ccc(Cl)cn1	-6.17
CCCCN1C(=O)/C(=C2/Sc3ccc(Cl)cc3N2CC)SC1=S	16.9
O=C(NCc1ccc2c(c1)OCO2)C(=O)NCC1OCCN1S(=O)(=O)c1ccc(F)cc1 (stereo not drawn)	-5.71
CCOC(=O)c1cc2c(ccn2C)n1CC(=O)N1CCCC(C)C1 (stereo not drawn)	-5.62
CCCCNC(=S)NNC(=O)c1sccc1C	1.59
Clc1nc(-c2ccccc2)c2ccccc2n1	4.43
NC(=O)Nc1cccc(C(F)(F)F)c1	1.74
O=C(C[n+]1ccccc1)Nc1ccc(Oc2ccccc2)cc1.[Cl-]	2.49
Nc1cc(C(=O)OCC(=O)NCc2ccco2)ccc1Cl	1.41
CC(=O)Nc1cccc(NC(=O)CSc2nnnn2Cc2ccccc2)c1	-5.41
CCOc1ccc(N(CC(=O)NCc2ccccc2)C(=O)CCC(=O)Nc2nccs2)cc1	-7.72

Structure (SMILES)	hERG current change (%, negative = inhibition) at 10uM [%]
C#CCCOC(=O)N1C2=NC(C(=O)OC)=C(C(=O)OC)[C@@H]3N(C)c4ccc(OC)cc4[C@]23C[C@H]1C(=O)OC	-16.3
Cn1c(C2CCCN2C(=O)OC(C)(C)C)n[nH]c1=S (stereo not drawn)	8.3
CCOC(=O)C1CCN(Cc2cc(=O)oc3cc(C)c(Cl)cc23)CC1	8.83
COc1cc(Cl)c(S(=O)(=O)N2CCN(Cc3ccc4c(c3)OCO4)CC2)cc1Cl	-3.28
Cc1ccc(Cn2c(C)c3cnn(CC(=O)N4CCC5(CC4)OCCO5)c(=O)c3c2C)cc1	7.14
CCOc1ccc(OCC)c(NC(=O)C2CCN(S(=O)(=O)c3cccc4nonc34)CC2)c1	17.5
CC(C)n1c(N2CCCC2)nc2c1c(=O)[nH]c(=O)n2C	12.9
CNC(=O)C1CC(=O)N(c2ccc(OCC(=O)N3CCCC3)cc2)C1 (stereo not drawn)	19.8
Cc1cccc2cc(CN(Cc3cccnc3)C(=S)NCCCN(C)C)c(=O)[nH]c12	3.93
COc1ccc(C)cc1Nc1n[n+](-c2ccccc2)c(-c2cccc(Cl)c2Cl)s1.[Cl-]	10
O=C(O)CC(C(=O)O)n1nc(-c2ccccc2)cc1-c1ccccc1 (stereo not drawn)	1.53
CN(CCN1CCOCC1)Cc1nc(-c2ccc3c(c2)OCO3)no1	1.05
COC(=O)c1cccc(N(C(=O)c2cnccn2)C(C(=O)NC2CCCCC2)c2cn(C)nc2C)c1 (stereo not drawn)	-1.75
O=C(Cn1c(C(=O)NCC2CCCO2)cc2sccc21)c1ccccc1 (stereo not drawn)	-3.47
O=CN/C=C/c1cc(O)ccc1O	-23.5
COCCNC(=O)C(c1ccccc1)N(C(=O)Cn1nnc2ccccc21)c1cccnc1 (stereo not drawn)	9.33
NCCc1c(C(=O)O)[nH]c2ccc([N+](=O)[O-])cc12	6.36
O=C(NNS(=O)(=O)c1ccccc1)c1cc2cc3ccccc3nc2s1	-10.4
COc1ccc(NC(=O)c2c3c(nc4ccccc24)CCC3)cc1S(=O)(=O)N1CCOCC1	-10.9
O=c1c2c3c(sc2n(CCN2CCCC2)c(=O)n1Cc1ccccc1)CCCCC3	-34.7
c1cncc(-c2nc(NCCCN3CCOCC3)c3c4c(sc3n2)CCC4)c1	10.1
COc1ccc(-c2cc(C(=O)Nc3ccc(O)cc3)c3ccccc3n2)cc1OC	0.848

Structure (SMILES)	hERG current change (%, negative = inhibition) at 10uM [%]
CCCCCCSc1cccc(-c2nc3ccc(C)cn3c2NC2CCCCC2)c1.O=C(O)C(F)(F)F	4.18
[N-]=[N+]=NC1c2ccccc2C(=O)N1Cc1ccccc1 (stereo not drawn)	10
Cc1cc(N2CCOCC2)nc(C(C)C)n1	6.61
COc1ccc(Cn2c(=S)[nH]c3cc(C(=O)NCCCN4CCOCC4)ccc3c2=O)cc1	24.1
C=CCn1c(NC(=O)c2ccc(Br)o2)c(C(=O)OCC)sc1=S	37
NC(=O)c1ccc(NC(=O)CSc2nnc(-c3ccncc3)n2Cc2ccco2)cc1	2.42
NS(=O)(=O)c1ccc(NC(=O)CN2CCN(S(=O)(=O)/C=C/c3ccccc3)CC2)cc1	-9.04
O=C(COC(=O)c1cccc(Cl)c1)Nc1cc(Cl)ccc1Oc1ccccc1	15.1
C=CCOc1ccc(C2NC(=O)NC(C)=C2C(=O)OC)cc1 (stereo not drawn)	-17
O=C(O)C1CCCN(S(=O)(=O)c2cccs2)C1 (stereo not drawn)	4.67
COCc1c(C(=O)Nc2nc(C)cs2)oc2ccccc12	-2.57
CCCCC(O)(CCCC)C(=O)NN(C(=O)c1cccnc1Cl)c1ccccc1	-3.75
CCc1cc(=O)oc2cc(C)cc(OC(C)C(=O)NCCCn3ccnc3)c12 (stereo not drawn)	-30.9
O=C(CCCN1C(=O)C(c2ccccc2)Oc2cccnc21)NCc1ccccc1Cl (stereo not drawn)	46.5
COC(=O)c1ccnc(/C=N/O)c1	10.7
C[C@H](NC(=O)c1nc[nH]c1C(=O)N[C@@H](CCCCNC(=O)OC(C)(C)C)C(=O)OC(C)(C)C)C(=O)OCc1ccccc1	0.44
COc1ccc([C@H]2CC(=O)C=C(c3ccc(-c4ccccc4)cc3)C2)cc1OC	13.5
CC(C)(C)C(=O)COC(=O)c1ccc(O)cc1	-0.497
Cc1cccc(CS(=O)(=O)c2ncc(Cl)c(C(=O)Nc3ccc(F)cc3)n2)c1	21.6
CC12CC[C@H]3[C@@H](CCC4(O)C[C@H](O)CCC34/C=N/NC(=O)c3ccccc3O)C1(O)CCC2C1=CC(=O)OC1 (stereo partly drawn)	4.9
COC(=O)C1=C(c2ccc(-c3ccccc3)c(F)c2)C[C@@H]2CC[C@H]1N2C(=O)NC1Cc2ccccc2C1	23.2
